In the supplement of paper PMC10300432:
Numbering of substitutions follows the chain as printed. Recombinant human monoclonal antibodies (heavy:light variable regions). ELISA EC50 on the named antigen, from 10 µg/ml down; IC50 against spike pseudovirus on HT1080-ACE2 cells, 48 h; lower = stronger. Calls: IC50 above 1,000 ng/ml = non-neutralizing; EC50 above 1,000 ng/ml = non-binder.

B1: C5091 (protein)
chain 1: QLQLQESGPGLVKPSETLSLTCTVSGGSISSSGYYLGWIRQPPGKGLEWIGSLYYDGTTYYNPSLKSRVTISVDTSKNQFSLRLSSLSAADTAVFYCARHLGYSSSWYLPGIHGFDIWGQGTMVTVSS
chain 2: QSVLTQPPSVSGAPGQRVTISCTGSSSNIGADYDVHWYQQLPGTAPKLLIYGNSNRPSGVPDRFSGSKSGTSASLAITGLQAEDEADYYCQSFDSSLSGLVFGGGTKLTVL
B2: C5032 (protein)
chain 1: QVQLVQSGPEVKKPGTSVKVSCKASGFSFSVSSVQWVRQTRGQGLEWIGWIVVGSGRTDYAQKFQERVTITRDLSTSSVHMELRRLRSEDTAVYYCAAPTCDRTTCFDGFDLWGQGTMVTVSS
chain 2: EIVLTQSPGTLSLSPGERATLSCRASQSISSSYLGWYQQKPGQAPRLLIYGASGRATGVPDRFSGSGSGTEFTLTISRLEPEDFAVYYCQQYGRSPWTFGQGTKVEIK
B3: C5092 (protein)
chain 1: EVQLLESGGGLVQPGGSLRLSCVGSGFTFRNYAMSWVRQAPGKGLEWVSAISGDGDSTYYADSLKGRFSISRDNSMHTLYLRMNSLRVEDTARYFCAQGGGPHSSGWYEGFWFDPRGQGTLVTVSS
chain 2: DIQMTQSPSTLSASVGDRVTITCRASQSISDWLAWYQQKPGKAPKLLVYKASTLESGVPSRFSGSGAGTDFTLTISSLQPDDFATYYCQQYNNYPCTFGQGTKLEIK
B4: C5094 (protein)
chain 1: QVQLVQSGAEVKKPGSSVKVSCKASGGTFINYSISWVRQAPGKGLEWMGRIIPILGSTTNAQNFQGRATITADKPTSTVYMELSSLRSEDTAVYYCARELDYIPDQTYYYYMDVWGEGTTVTVSS
chain 2: DIQMTQSPSSLSAFVGDRVTITCRASQSIRTYLNWYQQKPGKAPKLLIYAASSLQSGVPSRFSGGGSGTDFTLTINSLQPEDFATYYCQQCYSTPPSFGGGTKVEIK
B5: C5095 (protein)
chain 1: QVQLQQWGAGLLKPSETLSLTCGIYGGSSDTYYWSWIRQPPGKGLEWIGEINQSGTTNYNPSLKSRVTMSLDTSKNEVSLKLSSVTAADTAMYYCAREIVVVVGVGVTALRYHSYMDVWGKGTTVTVSS
chain 2: B4 chain 2
B6: C5096 (protein)
chain 1: QVQLQESGPGLVKPSETLSLTCTVSGGSISSNYWSWIRQPPGKGLEWIGSMYYSGSTNYNPSLKSRVTISVDTSKNQFSLKLSSVTAADTAVYYCARDGWGLRGYSGYDFLEPGFYDYWGQGILVTVSS
chain 2: DIVMTQSPDSLAVSLGERATINCKSSQSVLYSSNNKNYLAWYQQKPGQPPKLLISWASTRESGVPDRFSGSGSGTDFTLTISSLQAEDVAVYFCQQYYGPPPTFGQGTKVEIK
B7: C5097 (protein)
chain 1: QVQLVESGGGVVQPGRSLRLSCAASGFTFSNYDMHWVRQAPGKGLEWVAVISYDGSNKYYADSVKGRFTISRDNSKNTLYLQMNSLRAEDTAVYYCAKVDMAYCGGDCYARALDYWGQGTLVTVSS
chain 2: SYELTQPPSVSVAPGKTARITCGGNNIGSKSVHWYQQKPGQAPVLVIYYDSDRPSGIPDRFSGSNSGNTATLTISRVEAGDEADYYCQVWNSSSDHYVFGTGTKVTVL
B8: C5098 (protein)
chain 1: QVQLVQSGAEVKKPGASVKVSCKASGYTFTSYDISWVRQAPGQGLEWMGWISAYSGNTNYAQKLQGRVTMTTDTSTSTAYMELRSLRSDDTAVYYCARVLHYYVSGSSYYFDYWGQGTLVTVSS
chain 2: EIVMTQSPATLSVSPGERATLSCRASQSVSSNLAWYQQKPGQAPRLLIYGASTRATGIPPRFSGSGSGTEFTLTISSLQSEDFAVYYCQQCDNWPPTWTFGQGTKVEIK
B9: C5099 (protein)
chain 1: QVQLVESGGGVVQPGRSLRLSCATSGFTFRHYGMHWVRQAPGKGLEWVAVILYDGSEKYYADSVKGRFTISRDNSKSTLYLQMNSLRVEDTAVYYCAKRFGPYCGGGPCYGGGFDYWGQGTLVTVSS
chain 2: DIQMTQSPSSLSASVGDRVTITCQASQDISNYLNWYQQKPGKAPKLLIYDASNLETGVSSRFSGSGSGTDFTFTISSLQPEDIATYYCQQYGNLPITFGQGTRLEI
B10: C5105 (protein)
chain 1: QVQLVESGGGVVQPGRSLRLSCVASGFTFRTYGMHWVRQTPGKGLEWLAVISYDGDKTHYADSVKGRFTISRDNSKNTVFLQMNSLRAEDTAVYYCAKNLGPYCSGGDCLSGYFDYWGQGILVTVSS
chain 2: DIQMTQSPSSLSASVGDRVTITCQTSQDISNYLNWYQQKPGKAPKLLIYDVSNLETGVPSRFSGSGSGTDFSLTISSLQPEDIATYYCQQYNSVPLTFGGGTKVEIK
B11: C5106 (protein)
chain 1: QVQLVESGGGVVQPGRSLRLSCAASGFTFRTYGMHWVRQAPGKGLEWVAVISYDGDNQYHADSVKGRFTISRDNSKNTLYLQMNSLRTEDTAVYYCAKNLGPYCSGGNCLSGYFDYWGQGTLVTVSS
chain 2: DIQMTQSPSSLSASVGDRVTITCQASQDISNFLIWYQQKPGNAPKVVIYDASNLEAGVPSRFSGSGSGTDFTFTISSLQPEDIATYYCQQYDNVPLTFGGGTKVEIK
B12: C5033 (protein)
chain 1: QVQLVQSGTEVKKPGASVKISCKTSGYTFTNYYMHWVRQAPGQGLEWMGVINPSGGGSIYAQKFQGRLTMASDTSTGTVYMELDSLRSEDTALYYCARDRGETVYYGSGLGYWGQGTLVTVSS
chain 2: B6 chain 2 with S32R, S33N, S55Y, F93Y, Y98S, G99S, P100S, P102L, Q106G
B13: C5107 (protein)
chain 1: QVQLVESGGGVVHPGRSLRLSCAASGFTFSKYGMHWIRQAPGKGLEWVAVVSYDGSDKYYADSVKGRFTVSRDNSNNTLYLQMNSLRAEDTAVYYCAKVIYSYAYVGEYYFDYWGQGTLVTVSS
chain 2: DIQMTQSPSSLSASIGDRVTFTCQASQDIRNYLNWYQQKPGKAPKLLIYDASNLEAGVPSRFSGSGSGTDFTFTISSLQPEDIATYYCQQSLSFGGGTKVEIK
B14: C5109 (protein)
chain 1: QVQLQESGPGLVKPSETLSLTCSVSGHSISSGYFWAWIRQTPGKGLEWIGCISHSGTTHYNPSLRSRVTISLDTSKSQFFLDLTSVTAADTAVYYCARDPLGDYWGQGILVTVSS
chain 2: DIQMTQSPSSLSASVGDRVTITCRASQGISNSLAWYQQRPGTAPKLLLYAASTLESGVPSRFSGSGSGTDFTLTISSLQPEDFATYYCQQYYSPPPRTFGQGTKVEI
B15: C5110 (protein)
chain 1: EVQLVQSGAEVKKPGESLKISCKGSGYMFNTNWIGWVRQMPGKGLEWMGIIYLGDSETTYSPSFQGQVTLSADKSINTAYLQWSSLKASDTAIYYCARHRPFAATIDGAFGYMDVWGKGTTVTVSS
chain 2: EIVLTQSPGTLSLSPGERATLSCRASESVDSSYLAWYGQKPGQAPRLLIYGASIRATGIPDRFSGSGSGTDFTLTISRLEPEDFAVYYCQQYGSSPPYTFGQGTKLEIK

Columns and labels:
[1] = biological target: SARS-CoV-2 Omicron BA.1 spike pseudovirus; assay: pseudovirus neutralization IC50; higher = weaker neutralization
Procedure: (§1)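 Single-round luciferase reporter pseudovirus mixed with antibody dilutions and put on HT1080-ACE2 clone 14 cells for 48 h; signal relative to no-antibody wells, four-parameter fit.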

[2] = biological target: SARS-CoV-2 Omicron BA.4/5 spike pseudovirus; assay: as above
Procedure: as §1

[3] = biological target: SARS-CoV-2 Wuhan-Hu-1 spike pseudovirus; assay: as above
Procedure: as §1

[4] = biological target: SARS-CoV-2 Wuhan-Hu-1 spike receptor-binding domain; assay: ELISA binding EC50; higher = weaker binding; ELISA of recombinant human antibody on coated antigen, from 10 µg/ml in fourfold dilutions; four-parameter fit.

| Binder | pseudovirus neutralization IC50 [1] | pseudovirus neutralization IC50 [2] | pseudovirus neutralization IC50 [3] | ELISA binding EC50 [4] |
| --- | --- | --- | --- | --- |
| B1 | > 1 µg/mL | > 1 µg/mL | > 1 µg/mL | 0.00394 µg/mL |
| B2 | 0.00824 µg/mL | > 1 µg/mL | 0.00049 µg/mL | 0.0028 µg/mL |
| B3 | > 1 µg/mL | > 1 µg/mL | > 1 µg/mL | 0.00555 µg/mL |
| B4 | 0.0804 µg/mL | > 1 µg/mL | 0.00326 µg/mL | 0.00323 µg/mL |
| B5 | > 1 µg/mL | > 1 µg/mL | > 1 µg/mL | 0.0194 µg/mL |
| B6 | > 1 µg/mL | > 1 µg/mL | > 1 µg/mL | 0.0927 µg/mL |
| B7 | > 1 µg/mL | > 1 µg/mL | > 1 µg/mL | 0.132 µg/mL |
| B8 | > 1 µg/mL | > 1 µg/mL | 0.486 µg/mL | 0.00768 µg/mL |
| B9 | 0.726 µg/mL | 0.877 µg/mL | > 1 µg/mL | 0.00362 µg/mL |
| B10 | > 1 µg/mL | > 1 µg/mL | > 1 µg/mL | 0.00373 µg/mL |
| B11 | > 1 µg/mL | > 1 µg/mL | > 1 µg/mL | 0.00255 µg/mL |
| B12 | > 1 µg/mL | 0.63 µg/mL | 0.000852 µg/mL | 0.00386 µg/mL |
| B13 | > 1 µg/mL | > 1 µg/mL | > 1 µg/mL | 0.00379 µg/mL |
| B14 | 0.00651 µg/mL | > 1 µg/mL | 0.00189 µg/mL | 0.00376 µg/mL |
| B15 | > 1 µg/mL | > 1 µg/mL | > 1 µg/mL | 0.00667 µg/mL |
